The source of these data is the supplement of paper PMC4604168 (melanoma cell lines).

Some of the results follow. Repeats are few or missing, and single values can be far off.
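Further: cell number obtained by counting DAPI-stained nuclei in high-throughput microscope images with image analysis software, screen run in 1,536-well plates.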

For this assay, the system named is 501Mel. Briefly: cell count relative to DMSO control; melanoma cells; higher = more viable cells. Conditions: library dose: low library concentration; 72 h.
In turn, `OCc1c[nH]c2ccccc12` [Indole-3-carbinol] + COCC[n+]1c2c(n(Cc3cnccn3)c1C)C(=O)c1ccccc1C2=O [YM155] (first compound 0.8 µM, partner dose 0.0004 µM) had a cell count of 34.3%.

`OCc1c[nH]c2ccccc12` [Indole-3-carbinol] + C[C@]1(c2nc3c(C(N)=O)cccc3[nH]2)CCCN1 [Veliparib] (first compound 0.8 µM, partner dose 1.4 µM) gave a cell count of 52.7%.

In turn, `OCc1c[nH]c2ccccc12` [Indole-3-carbinol] + C#Cc1cccc(Nc2ncnc3cc(OCCOC)c(OCCOC)cc23)c1 [erlotinib] (first compound 0.8 µM, partner dose 0.8 µM) displayed a cell count of 112%.

Regarding `C#Cc1cccc(Nc2ncnc3cc(OCCOC)c(OCCOC)cc23)c1` [erlotinib] + Cn1nnc2c(C(N)=O)ncn2c1=O [temozolomide] (first compound 0.8 µM, partner dose 2 µM), the cell count is 63.2%.

`C#Cc1cccc(Nc2ncnc3cc(OCCOC)c(OCCOC)cc23)c1` [erlotinib] + Cc1nc(Nc2ncc(C(=O)Nc3c(C)cccc3Cl)s2)cc(N2CCN(CCO)CC2)n1 [dasatanib] (first compound 0.8 µM, partner dose 0.004 µM) showed a cell count of 76.2%.

Consider `Cn1c(Nc2ccc(C(F)(F)F)cc2)nc2cc(Oc3ccnc(-c4ncc(C(F)(F)F)[nH]4)c3)ccc21` + Cn1nnc2c(C(N)=O)ncn2c1=O [temozolomide] (first compound 0.08 µM, partner dose 2 µM), for which the cell count stood at 18.5%.

On to `COCC[n+]1c2c(n(Cc3cnccn3)c1C)C(=O)c1ccccc1C2=O` + C[C@]1(c2nc3c(C(N)=O)cccc3[nH]2)CCCN1 [Veliparib] (first compound 0.0004 µM, partner dose 1.4 µM), for which the cell count came to 93.7%.

Compound `OCc1c[nH]c2ccccc12` [Indole-3-carbinol] + COc1cc(Nc2ncc(F)c(Nc3ccc4c(n3)NC(=O)C(C)(C)O4)n2)cc(OC)c1OC [Tamatinib] (first compound 0.8 µM, partner dose 0.4 µM) displayed a cell count of 82%.

`Clc1ccc(Nc2nnc(Cc3ccncc3)c3ccccc23)cc1` [vatalanib] + C[C@@H]1CCN(C(=O)CC#N)C[C@@H]1N(C)c1ncnc2[nH]ccc12 [CP690550] (first compound 2 µM, partner dose 1 µM) gave a cell count of 87.9%.

`C#Cc1cccc(Nc2ncnc3cc(OCCOC)c(OCCOC)cc23)c1` [erlotinib] + COCC[n+]1c2c(n(Cc3cnccn3)c1C)C(=O)c1ccccc1C2=O [YM155] (first compound 0.8 µM, partner dose 0.0004 µM) yielded a cell count of 127%.

With `Clc1ccc(Nc2nnc(Cc3ccncc3)c3ccccc23)cc1` [vatalanib] + COCC[n+]1c2c(n(Cc3cnccn3)c1C)C(=O)c1ccccc1C2=O [YM155] (first compound 2 µM, partner dose 0.0004 µM), the cell count was 44.1%.

In turn, `OCc1c[nH]c2ccccc12` [Indole-3-carbinol] + COc1ccc(Cl)c(Nc2nc3ccccc3nc2NS(=O)(=O)c2cccc(NC(=O)C(C)(C)N)c2)c1 [XL147] (first compound 0.8 µM, partner dose 0.8 µM) gave a cell count of 85.9%.

Turning to `Nc1cccc2c1CN(C1CCC(=O)NC1=O)C2=O` (stereo unspecified) [lenalidomide] + C[C@]1(c2nc3c(C(N)=O)cccc3[nH]2)CCCN1 [Veliparib] (first compound 1 µM, partner dose 1.4 µM), the cell count was determined as 86.7%.

Consider `COCC[n+]1c2c(n(Cc3cnccn3)c1C)C(=O)c1ccccc1C2=O` + O=C(CCCCCCC(=O)Nc1ccccc1)NO [vorinostat] (first compound 0.0004 µM, partner dose 0.08 µM), for which the cell count is 96%.

On to `OCc1c[nH]c2ccccc12` [Indole-3-carbinol] + Cn1c(Nc2ccc(C(F)(F)F)cc2)nc2cc(Oc3ccnc(-c4ncc(C(F)(F)F)[nH]4)c3)ccc21 [CHIR265] (first compound 0.8 µM, partner dose 0.08 µM), for which the cell count worked out at 51.2%.

`COCC[n+]1c2c(n(Cc3cnccn3)c1C)C(=O)c1ccccc1C2=O` + Nc1cccc2c1CN(C1CCC(=O)NC1=O)C2=O [lenalidomide] (first compound 0.0004 µM, partner dose 1 µM): the cell count stood at 120%.
